According to patent US20230272023A1 (HUMAN CELL, published 2023):

Key:
[1] = biological target: T1, human TrkA on TF1 erythroleukemic cells (human, UniProt P04629 33-796); test: cell-based or functional assay
[2] = biological target: T1, human TrkA on TF1 erythroleukemic cells; test: cell-based or functional assay; remark: listed apart in the source
[3] = biological target: T1, human TrkA on TF1 erythroleukemic cells; test: cell-based or functional assay; remark: listed apart in the source
[4] = biological target: T1, human TrkA on TF1 erythroleukemic cells; test: cell-based or functional assay; remark: listed apart in the source
[5] = biological target: T2, p75^NTR receptor immobilized on the Biacore chip (UniProt P08138 29-250); test: SPR, Biacore 3000; against NGF wt
T2 sequence (looked up): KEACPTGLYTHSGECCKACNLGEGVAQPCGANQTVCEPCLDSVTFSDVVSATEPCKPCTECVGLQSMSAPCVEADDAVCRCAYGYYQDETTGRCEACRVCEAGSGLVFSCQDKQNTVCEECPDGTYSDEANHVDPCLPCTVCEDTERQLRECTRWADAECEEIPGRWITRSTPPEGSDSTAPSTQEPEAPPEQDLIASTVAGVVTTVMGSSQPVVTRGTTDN
Description: (§1) The binding experiments were performed on Biacore 3000 at 25° C. Receptors were directly immobilized by direct immobilization using EDC/NHS amine coupling kit and GE protocol. The receptor was coated until the desired RU. The unoccupied active sites on the chip were quenching by flowing 1 M ethanol amine. […] Data were analyzed using Biacore 3000 bia evaluation software (Biacore) using the values after reference subtraction. KD was determined by applying either local (for scouting) or global (full kinetics) 1:1 Langmuir fitting model. Full kinetics was performed with the range of analyte at a 2-fold serial dilution and flowed over the ligand from lowest to highest concentration range.

[6] = biological target: T2, p75^NTR receptor immobilized on the …; test: SPR, Biacore 3000; Table 4 column Binding affinity (nM), P75^NTR
Description: as §1

[7] = biological target: T2, p75^NTR receptor immobilized on the …; test: SPR, Biacore 3000, 25 C, receptor amine-coupled on chip, NGF mutein as analyte, 1:1 Langmuir
Description: as §1

T1 sequence (P04629 33-796): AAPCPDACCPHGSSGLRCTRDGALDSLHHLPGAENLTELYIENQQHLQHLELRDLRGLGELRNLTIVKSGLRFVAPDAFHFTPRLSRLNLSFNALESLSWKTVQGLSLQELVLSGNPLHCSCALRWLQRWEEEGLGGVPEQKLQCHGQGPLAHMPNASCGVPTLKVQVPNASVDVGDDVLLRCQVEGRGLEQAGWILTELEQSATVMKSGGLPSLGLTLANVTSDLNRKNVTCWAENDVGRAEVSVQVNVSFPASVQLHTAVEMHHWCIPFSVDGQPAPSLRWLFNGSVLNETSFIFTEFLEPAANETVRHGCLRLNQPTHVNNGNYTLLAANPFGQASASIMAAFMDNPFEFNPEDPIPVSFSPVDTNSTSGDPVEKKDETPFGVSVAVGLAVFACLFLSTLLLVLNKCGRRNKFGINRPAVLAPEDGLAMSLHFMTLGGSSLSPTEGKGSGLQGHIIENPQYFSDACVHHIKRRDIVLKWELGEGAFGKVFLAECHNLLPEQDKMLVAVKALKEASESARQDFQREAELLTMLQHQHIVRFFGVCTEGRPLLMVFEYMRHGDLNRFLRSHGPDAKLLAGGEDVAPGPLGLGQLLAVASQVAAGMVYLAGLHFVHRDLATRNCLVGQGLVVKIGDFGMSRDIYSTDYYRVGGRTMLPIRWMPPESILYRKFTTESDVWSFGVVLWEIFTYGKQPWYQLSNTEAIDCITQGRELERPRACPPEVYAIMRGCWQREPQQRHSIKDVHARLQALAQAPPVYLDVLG

Binder	EC50 in TF-1 proliferation assay, protein kept 7 days at 4° C. [1]	EC50 in TF-1 proliferation assay, protein kept 7 days at 55° C. [1]	EC50 in TF-1 proliferation assay, 4° C. [3]	EC50 in TF-1 proliferation assay, after storage at 55° C. [3]	other results
NGF K34E (ligand) not shown	2.79 ng/mL	2.89 ng/mL	–	–	–
NGF R69A (ligand) not shown	106 ng/mL	–	–	–	–
NGF R69E (ligand) not shown	53.9 ng/mL	–	–	–	–
NGF R100D (ligand) not shown	6.84 ng/mL	17.1 ng/mL	–	–	–
NGF R100E (ligand) not shown	3.99 ng/mL	5.23 ng/mL	–	–	–
NGF K34D (ligand, Mutein of mature human NGF, expressed in HEK293 cells) not shown	1.08 ng/mL	0.92 ng/mL	1.01 ng/mL	1.55 ng/mL	EC50 for stimulating TF1 cell proliferation, fold reduction against the wildtype [2]: 3 fold; TrkA receptor Bio-activity [4]: 1.01 ng/mL; fold reduction of binding affinity against wildtype [5]: 27 fold; Kd [6]: 8.62 nM; Kd [7]: 8.62 nM; koff [7]: 0.0235 s⁻¹; kon [7]: 2.73e+06 M⁻¹ s⁻¹
NGF K34A (ligand) not shown	1.5 ng/mL	1.8 ng/mL	–	–	EC50 for stimulating TF1 cell proliferation, fold reduction against the wildtype [2]: 2 fold
NGF K32A (ligand) not shown	–	–	1.26 ng/mL	1.12 ng/mL	–
NGF K32D (ligand) not shown	–	–	4.79 ng/mL	5.91 ng/mL	EC50 for stimulating TF1 cell proliferation, fold increase against the wildtype [2]: 2 fold
